# Article PMC12136788
# Some of the results follow.
# T1: UNK ZnF1-3 (human, UniProt Q9C0B0 31-174)
# T1 sequence: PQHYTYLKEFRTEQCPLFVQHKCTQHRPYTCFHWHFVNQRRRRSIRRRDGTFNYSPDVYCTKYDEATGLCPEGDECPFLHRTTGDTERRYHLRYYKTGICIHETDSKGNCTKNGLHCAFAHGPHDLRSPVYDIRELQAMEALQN
# B1: chr7:141438946:141438947:+_ENSG00000106028_ENST00000265304|hu_mus|hu_hu_hu_mus_True|1_78 (ssRNA)
# RNA: GGGAGUUCUACAGUCCGACGAUCGACGAAAUACCUGUAACACAGGUCUUCGAAACAUUCUAUUUUCUUUUCUUACAACCUAAUCUUUAGGCUUUUCCUAAAGGAAAGAAAGAAAAGAGAAAAAUGAUAAAUCAAGAACUUCCGCAACAGAGGAUUGAGCAUCA
# B2: chr16:56712917:56712918:-_ENSMUSG00000022757_ENSMUST00000065515|mus_hu|motif|central (ssRNA)
# RNA: GGGAGUUCUACAGUCCGACGAUCAUGAUUAGCUUCCCACUUAGAUCCAACUGUCCGUUCAUGGUGGACUCCAGGAUGUUCGGUAUAUACAACUCUAGAGAAAGACCAGGACGCAUGCGCGACGGCGCGAGGCGCAGGGCUGGCCAACAGAGGAUUGAGCAUCA
# B3: chr7:135850644:135850645:-_ENSMUSG00000048170_ENSMUST00000057557|mus_mus|FALSE|FALSE (ssRNA)
# RNA: GGGAGUUCUACAGUCCGACGAUCGUAGAGGUGUUCCGUGAAGGUACUGUUCUGCGGGCAACCACUCAGGUUAACUGUAAAUUUUCCUAGAGGAAGUACAUCUCUUCUUGUAUACACUGUAGAGAUGAGAUGCAAUAUAAGAUACAACAGAGGAUUGAGCAUCA
# B4: 90017393_90017513_783_CDS_ENSMUSG00000057706_ENSMUST00000082237|mouse|control|control (ssRNA)
# RNA: GGGAGUUCUACAGUCCGACGAUCUGGCACCCUCACUUGGAUAGUGGUCUGUCCCGGCAGGUUGGGCGGUCCGGGCACAGCUCCGUUGAGAGCCGUGUUCUUGUUACGAGAGGCUCGGAUCAUGGAGAAGUGCUCUGCGGCAGACAACAGAGGAUUGAGCAUCA
# B5: 31616714_31617068_550_CDS_ENSG00000204463_ENST00000375976|human|control|control (ssRNA)
# RNA: GGGAGUUCUACAGUCCGACGAUCGUGAACAUCCACAGCAGAGCCGUCACUAGGAAGAUUGAAGGUUCCAACCAUGACAUAGCUGUUGGCAUUCCGGUCAUGAACAGAGGCCCCAGGCCCCCGAGUACCAGGGGGGGAUCCCCCCAACAGAGGAUUGAGCAUCA
# B6: chr11:80063784:80063785:+_ENSMUSG00000017686_ENSMUST00000092857|mus_hu|FALSE|FALSE (ssRNA)
# RNA: GGGAGUUCUACAGUCCGACGAUCCAUUAAGUUUCUUCCAAGAAGAGCCUGAAGAACUCCACUUUUCCCACAGUUUUUCACUCCAAUUACAUUACAUCUGAACACAUUUCUUUGAGUUUGUUUUUUCUGCAGGUCUAUCUUUUUCAACAGAGGAUUGAGCAUCA
# B7: 5264709_5264829_1586_CDS_ENSG00000029725_ENST00000262477|human|control|control (ssRNA)
# RNA: GGGAGUUCUACAGUCCGACGAUCUCUUUCCUGAUCUUUGGUUAACAUAAACCCACUUGGCAUCUGGAGUGACCCAAGGGAUGCAGUAUCAAAGUUCUCAGACACUGAAUCUGCUCCUACCAGUGGUCCAAAAUCUGACUCGUCCAACAGAGGAUUGAGCAUCA
# B8: chr22:32879901:32879902:+_ENSG00000100225_ENST00000397426|hu_mus|hu_hu_hu_mus_False|18_28 (ssRNA)
# RNA: GGGAGUUCUACAGUCCGACGAUCCUCUUCCAUACUCAUGGCAUCCUGAAUUGACUCAGCUUCAACAUUUUGACUAGGCCCUUCCAUACUGUCAUCAGUCCAGGCAUCAGACUGGGCUGCCUGUCCUUGGGAUGAAUCAGUCCCCAACAGAGGAUUGAGCAUCA
# B9: chr1:39494447:39494448:+_ENSG00000168653_ENST00000372967|hu_mus|hu_hu_hu_mus_False|1_38 (ssRNA)
# RNA: GGGAGUUCUACAGUCCGACGAUCGCACCGAGCGGCGUUCUUAUAGGGCUGUUCUGCGCUUAGGAACAUAAAGUGCCGGUCCAGGCUGAUGCCCAGCCUUUUCUGGAUGUCAAGGAAAGGCAUGGCUCUGCAGUGCCCCCUUGACAACAGAGGAUUGAGCAUCA
# B10: chr16:94664806:94664807:+_ENSMUSG00000040785_ENSMUST00000117648|mus_mus|motif|central (ssRNA)
# RNA: GGGAGUUCUACAGUCCGACGAUCAUUAGGACUCUCAAAGUAUGCAGCGGCAUUUUCAUCUGCUCUGUUGCUGGCGGCAAAAGAUGGCACCACUGGCAUGGAUCUUUGCAUUGGAUACUCAGAAGAAAUGUUGGCCAAAGGUGUCAACAGAGGAUUGAGCAUCA
# B11: chr4:17845017:17845018:+_ENSG00000109805_ENST00000514176|hu_mus|hu_hu_hu_mus_False|88_88 (ssRNA)
# RNA: GGGAGUUCUACAGUCCGACGAUCGCUCUCUUAACUUGUAUCUUCAUGAGAAAUUGGUGCAAGGUUAAGUUUACUUUUCUGUAGCGCAGCUGUUUUGGCUCGUCUGGGUAAUCUCAUCUUCAUUUCUGAUGGUGGUUCAUGAUCCAACAGAGGAUUGAGCAUCA
# B12: chr2:179515052:179515053:+_ENSMUSG00000000305_ENSMUST00000000314|mus_hu|mus_mus_mus_hu_False|18_28 (ssRNA)
# RNA: GGGAGUUCUACAGUCCGACGAUCGCUGUCCCAUGCAGUCACCGUGAACGCCACCUGCUCGGAGGGGACCUGCAGCUCCCGGGUGGCGAAGACUGUCCCAUCUGCCCCGACUUUGAAGUCCAAGCUGUUGGUCUCAUAUUGUGUCAACAGAGGAUUGAGCAUCA
# B13: chr5:145543945:145543946:-_ENSG00000133706_ENST00000545646|hu_hu|hu_hu_hu_mus_True|38_38 (ssRNA)
# RNA: GGGAGUUCUACAGUCCGACGAUCCUGAACGGCCAGUGGUGGGAAAUAAUCAAGCCAGUGCUCUGCUUCAGAAAACUUCACUAUGUCGUCAUCAGAGAGGCCAAGGGAUUUCAUAAUGUCCCACUGGUACUUAGAAGAUCCUGCCAACAGAGGAUUGAGCAUCA
# B14: chr14:89307221:89307222:+_ENSG00000165533_ENST00000346301|hu_mus|hu_hu_hu_mus_False|38_78 (ssRNA)
# RNA: GGGAGUUCUACAGUCCGACGAUCUCCUGUUUGGUUAGUGCCAGGGAGCUUCAAAGACGUUCCAGGGCGUGGGACCUGAGCAAUAGCAUUUUCAUCCAGCAUCAUUUCAGCAAUUCCUUCCUGGUCCACAUCAAUUUCAUCUAUCAACAGAGGAUUGAGCAUCA
# B15: chr5:73697939:73697940:+_ENSMUSG00000029152_ENSMUST00000031038|mus_hu|FALSE|FALSE (ssRNA)
# RNA: GGGAGUUCUACAGUCCGACGAUCUCCUUGGACAAUAUGAUCAGUAAUACCAGUGGGAGCAGAUUCAUUCAUAGAAGAACUGAAUGGAAUUGGCUCAUAAUGAGGAAGCAUUUCUAUGUUGUCUGCUGCUGGGGAUGUCACAAACAACAGAGGAUUGAGCAUCA
# B16: chr7:75932113:75932114:+_ENSG00000106211_ENST00000248553|hu_hu|hu_hu_hu_mus_False|58_88 (ssRNA)
# RNA: GGGAGUUCUACAGUCCGACGAUCCUGCGACCACUCAUCGGGCAACCGGGGCAGCCCGAAAGCUUGAUCGAAGAGGCGGCUAUGCGGAGGGUACCAGUCCCGGAAUGGUUCCCAGCUCGGGCUCCGCAGCAGCGAGAAGGGCACCAACAGAGGAUUGAGCAUCA
# B17: chr3:148802587:148802588:-_ENSG00000071794_ENST00000310053|hu_mus|hu_hu_hu_mus_False|38_98 (ssRNA)
# RNA: GGGAGUUCUACAGUCCGACGAUCUCCAACAACUUGUCCUCUCAAACUUCCAAAUAAAACCAAAUCUUGCUCUUCAUCACUCGUUAGGAAGUCAUCUGGAGGGAUAAUGUCUUGGAAUUCAAAAUGUGGCAAGAAAGUUGAGUACAACAGAGGAUUGAGCAUCA
# B18: chr14:96997824:96997825:+_ENSG00000090060_ENST00000216277|hu_mus|FALSE|FALSE (ssRNA)
# RNA: GGGAGUUCUACAGUCCGACGAUCGUUUUUAAGCAGACUGUCAUCUCGUAGGUCCAAAUCUUCUGGAAUAGUCUGCAGUGCUAAUCUUGCAAACAAAAUAUCAAUCUCUAUUCCAUCAAAACAGAGUUUGAUAACUGGUACAAACAACAGAGGAUUGAGCAUCA
# B19: chr7:135124741:135124742:+_ENSMUSG00000030795_ENSMUST00000077609|mus_hu|FALSE|FALSE (ssRNA)
# RNA: GGGAGUUCUACAGUCCGACGAUCAGAGCCACCUGGUCCCCCUCCUGGGCCAUCUGGUUUAGGGGCCUUACACUGGUUGCAUUCAUUCCUCCAAGAGAAGUUCAUAUUCUCACAGGUGGGAUUAGGACACUUCCAGUCACCAGCCAACAGAGGAUUGAGCAUCA
# B20: chr10:75542919:75542920:+_ENSG00000172586_ENST00000372833|hu_hu|FALSE|FALSE (ssRNA)
# RNA: GGGAGUUCUACAGUCCGACGAUCAUUUCAGUCAUUGAAAAUACUUGUCCAUUUUCAGCUGAGGUAAGGUUUGUUAGGAAACCUCUGUAACAACUUAUUCAAUUUAUUUGGAAGUAAACUCCCAGACUCUCCCAGGGUUUCCUGCAACAGAGGAUUGAGCAUCA
# B21: chr17:30658727:30658728:-_ENSG00000108666_ENST00000577809|hu_hu|FALSE|FALSE (ssRNA)
# RNA: GGGAGUUCUACAGUCCGACGAUCUUCAAAUCAUCUUAAAUAGCAAUCCUAUGAACAAUUAUAACUGCAAUUUCAAACACUAAGACUUAAAUAUACAACUUGAUCAUACAAUUAUCUCAAAACAUAUGAUCAAAAACUUUGGUCCAACAGAGGAUUGAGCAUCA
# B22: chr12:48528548:48528549:+_ENSG00000152556_ENST00000359794|hu_hu|FALSE|FALSE (ssRNA)
# RNA: GGGAGUUCUACAGUCCGACGAUCGAGUCGGCGACAAAGGUGUUCCUCCCAGUCGUCAUCUGGUGGACAUUCAGGAAUAAAAACCCAGUCGGCCCCACAGGACAGAGAGGUGACAAGGGCCAGGUAUCCACAGUGGCGGCCCAUCAACAGAGGAUUGAGCAUCA
# Target: T1, UNK ZnF1-3
# Test: nsRBNS (natural sequence RNA bind-n-seq); RBNS binding buffer (assumed for nsRBNS): 25 mM Tris pH 7.5, 150 mM KCl, 3 mM MgCl2, 0.01% Triton X-100, 500 ug/ml BSA, 20 U/ml SUPERase-In, 4 C; UNK is unkempt and MSI1 is Musashi-1; names of the RNAs are library labels; protein concentration not given here; high values mean tight binding
row,Binder,binding signal
1,B1,0.434 enrichment R
2,B2,0.774 enrichment R
3,B3,0.939 enrichment R
4,B4,0.905 enrichment R
5,B5,1.59 enrichment R
6,B6,0.577 enrichment R
7,B7,0.771 enrichment R
8,B8,0.965 enrichment R
9,B9,0.552 enrichment R
10,B10,1.18 enrichment R
11,B11,0.466 enrichment R
12,B12,0.671 enrichment R
13,B13,1.11 enrichment R
14,B14,0.962 enrichment R
15,B15,1.58 enrichment R
16,B16,1.11 enrichment R
17,B17,1.23 enrichment R
18,B18,0.523 enrichment R
19,B19,1.04 enrichment R
20,B20,0.452 enrichment R
21,B21,0.624 enrichment R
22,B22,0.775 enrichment R
